Measurements published in PubChem BioAssay (NCI).
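Briefly, cells in 96-well plates were exposed to five compound concentrations for 48 h, and endpoints were estimated by linear interpolation. At the GI50, growth is halved.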 The source holds more than one record for some entries. The other results are left out here. The source may hold further records. For part of these data: The records of an entry repeat one measurement across runs, samples, wells, individuals or studies. Marks in square brackets tell the records apart. The letters are not those of the source and start again with each entry.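 TGI marks complete inhibition of growth.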 For part of these data: A record mostly stands for its own series of concentrations, which the source does not state; a value can be the end of its range.

Assays:
Assay in all cases: inhibition of tumour cell growth, NCI panel, 48 h
EKVX NSCLC = tested on: EKVX NSCLC
UO-31 renal = tested on: UO-31 renal
IGROV1 ovarian = tested on: IGROV1 ovarian
SK-MEL-2 melanoma = tested on: SK-MEL-2 melanoma
HL-60(TB) leukemia = tested on: HL-60(TB) leukemia
SF-268 CNS = tested on: SF-268 CNS
OVCAR-4 ovarian = tested on: OVCAR-4 ovarian
SK-MEL-28 melanoma = tested on: SK-MEL-28 melanoma
MALME-3M melanoma = tested on: MALME-3M melanoma
HCT-15 colon = tested on: HCT-15 colon
UACC-257 melanoma = tested on: UACC-257 melanoma
HT29 colon = tested on: HT29 colon
KM20L2 colon = tested on: KM20L2 colon
SK-MEL-5 melanoma = tested on: SK-MEL-5 melanoma
COLO 205 colon = tested on: COLO 205 colon
MOLT-4 leukemia = tested on: MOLT-4 leukemia
SF-295 CNS = tested on: SF-295 CNS
U251 CNS = tested on: U251 CNS
LOX IMVI melanoma = tested on: LOX IMVI melanoma
SF-539 CNS = tested on: SF-539 CNS
HOP-18 NSCLC = tested on: HOP-18 NSCLC
DMS 114 small cell lung = tested on: DMS 114 small cell lung
HOP-92 NSCLC = tested on: HOP-92 NSCLC
A498 renal = tested on: A498 renal
SK-OV-3 ovarian = tested on: SK-OV-3 ovarian
786-0 renal = tested on: 786-0 renal
CCRF-CEM leukemia = tested on: CCRF-CEM leukemia
HOP-62 NSCLC = tested on: HOP-62 NSCLC
SNB-78 CNS = tested on: SNB-78 CNS
SNB-19 CNS = tested on: SNB-19 CNS
NCI-H23 lung = tested on: NCI-H23 lung
XF 498 CNS = tested on: XF 498 CNS
OVCAR-3 ovarian = tested on: OVCAR-3 ovarian

For `Nc1cc(C(F)(F)F)c(-c2cc(N3CCOCC3)nc(N3CCOCC3)n2)cn1`, the TGI (EKVX NSCLC) was 5.98 µM [sample A, mean of 2 tests] and > 82.8 µM [sample B, mean of 2 tests], the TGI (UO-31 renal) was 3.08 µM [sample A, mean of 2 tests] and > 100 µM [sample B, mean of 2 tests] and the TGI (IGROV1 ovarian) was 1.07 µM [sample A, mean of 2 tests] and > 100 µM [sample B, mean of 2 tests].

For `CC(C)(C)NC(=O)[C@H]1CC[C@H]2[C@@H]3CC[C@H]4NC(=O)C=C[C@]4(C)[C@H]3CC[C@]12C`, the GI50 (SK-MEL-2 melanoma) was > 100 µM [sample A, 1 test] and 8.39 µM [sample B, 1 test].

With `CC(=O)OC(C)(C)/C=C/C(=O)[C@](C)(O)[C@H]1[C@H](O)C[C@@]2(C)[C@@H]3CC=C4[C@@H](C=C(O)C(=O)C4(C)C)[C@]3(C)C(=O)C[C@]12C` the TGI (HL-60(TB) leukemia) was 177, 122, 758, 398 nM, the TGI (SF-268 CNS) was 94.5, 359, 70.1, 87.5 nM and the TGI (OVCAR-4 ovarian) was 308 nM, 199 nM, 1.06 µM, 53.7 nM. For the same compound, the TGI (SK-MEL-28 melanoma) was 101, 318, 90.3, 377 nM, the TGI (EKVX NSCLC) was 338 nM, 2.48 µM, 573 nM, 1.02 µM and the TGI (MALME-3M melanoma) was 261 nM, 1.1 µM, 582 nM, 221 nM. For the same compound, the TGI (HCT-15 colon) was 879 nM, 2.19 µM, 1.59 µM, 4.51 µM, the TGI (UACC-257 melanoma) was 607, 450, 988, 87.9 nM and the TGI (HT29 colon) was 823 nM, 4.11 µM, 3.02 µM, 703 nM. The TGI (UO-31 renal) was 31.7 nM [mean of 4 tests] and 97.1 nM, 338 nM, 49.4 nM [mean of 5 tests], the TGI (KM20L2 colon) was 487 nM, 4.43 µM, 426 nM, 2.52 µM and the TGI (SK-MEL-5 melanoma) was 388, 375, 182, 45.7 nM. For the same compound, the TGI (COLO 205 colon) was 391 nM, 4.14 µM, 3.15 µM, 1.08 µM, the TGI (MOLT-4 leukemia) was 3.93 µM, 11.9 µM, 996 nM and the TGI (SF-295 CNS) was 241, 162, 75, 46.8 nM. The TGI (IGROV1 ovarian) was 107, 187, 177, 50.4 nM, the TGI (U251 CNS) was 166, 300, 146, 53.6 nM and the TGI (LOX IMVI melanoma) was 52.4 nM, 253 nM, 30.6 nM, 1.14 µM. For the same compound, the TGI (SF-539 CNS) was 52.5, 181, 36.1, 83.9 nM, the TGI (HOP-18 NSCLC) was 101, 329, 127, 314 nM and the TGI (DMS 114 small cell lung) was 567 nM, 1.47 µM, 2.02 µM, 1.53 µM. The TGI (HOP-92 NSCLC) was 109, 236, 37.9, 47.1 nM, the TGI (A498 renal) was 50.3, 109, 25.2, 43.2 nM and the TGI (SK-OV-3 ovarian) was 774 nM, 268 nM, 976 nM, 3.62 µM. For the same compound, the TGI (786-0 renal) was 375 nM and 27.3 nM, the TGI (CCRF-CEM leukemia) was 478 nM, 578 nM, 494 nM, 5.29 µM and the TGI (HOP-62 NSCLC) was 290, 475, 116, 84.9 nM. The TGI (SNB-78 CNS) was 795 nM, 2.9 µM, 231 nM, 575 nM, the TGI (SNB-19 CNS) was 196, 450, 191, 649 nM and the TGI (NCI-H23 lung) was 861 nM, 2.93 µM, 804 nM, 1.57 µM. For the same compound, the TGI (XF 498 CNS) was 60.5 nM, 70.7 nM, < 23.5 nM, 54.2 nM and the TGI (OVCAR-3 ovarian) was 735, 641, 216, 91.7 nM.
